Measured values as given in patent publication US12331094B2 (Bayer Aktiengesellschaft, priority 2018, dated 2025).
Positions count from the first letter of the chain named. Like-named read-outs stand apart in the source and are kept apart here.

B1: TPP-10992: compound 9 as IgG4; ANP engrafted in CDRH1; SEQ ID NO 76 and SEQ ID NO 66 (antibody, listed as Homo sapiens)
heavy: EVQLLESGGGLVQPGGSLRLSCAASGFTFGSGSGSGSGSGSPDGGSGGSLRRSSCFGGRMDRIGAQSGLGCNSFRYGSYGSGSGSGSGSGMSWVRQAPGKGLEWVSAISGSGGSTYYADSVKGRFTISRDNSKNTLYLQMNSLRAEDTAVYYCAKLTGAEYFQHWGQGTLVTVSSASTKGPSVFPLAPCSRSTSESTAALGCLVKDYFPEPVTVSWNSGALTSGVHTFPAVLQSSGLYSLSSVVTVPSSSLGTKTYTCNVDHKPSNTKVDKRV[here human IgG4 Fc with S228P (EU numbers) without letters]
light: QSVLTQPPSVSGAPGQRVTISCTGSSSNIGAGYDVHWYQQLPGTAPKLLIYGNSNRPSGVPDRFSGSKSGTSASLAITGLQAEDEADYYCQSYDSSLSGVVFGGGTKLTVLGQPKAAPSVTLFPPSSEELQANKATLVCLISDFYPGAVTVAWKADSSPVKAGVETTTPSKQSNNKYAASSYLSLTPEQWKSHRSYSCQVTHEGSTVEKTVAPTECS
modifications: NP engrafted HC
B2: C9: CNP engrafted antibody based on TPP-12377, LC_S98D (antibody)
heavy: EVQLLESGGGLVQPGGSLRLSCAASGFTFSSYAMSWVRQAPGKGLEWVSAISGSGGSTYYADSVKGRFTISRDNSKNTLYLQMNSLRAEDTAVYYCTSVHQETKKYQSSPYKGANKKGLSKGCFGLKLDRIGSMSGLGCGSGGSGSYSYTYNYEWHVDVWGQGTLVTVSS[here human IgG1 constant region without letters]
light: B1 light with S98D

Assays:
[1] = system: PE-contracted aortic rings; assay: Vasorelaxation of isolated phenylephrine-contracted rat aortic rings
Procedure: All experiments were conducted in accordance with institutional guidelines and approved by the local committee on animal experiments. Male Sprague-Dawley rats (weighing 250-300 g) were anesthetized with pentobarbital sodium (40 mg/kg i.p.), killed by decapitation, and exsanguinated. The thoracic aorta was excised and placed in ice-cold Krebs buffer of the following composition: 130 mM NaCl, 14.9 mM NaHCO3, 5.5 mM dextrose, 4.7 mM KCl, 1.18 mM KH2PO4, 1.17 mM MgSO47H2O, and 1.6 mM CaCl22H2O. The vessel was pinned in a Sylgard Petri dish filled with chilled Krebs' solution, cleaned of fat and connective tissue, and cut into ring segments of approximately 3 to 4 mm in length. […] Changes in isometric force were recorded using a PowerLab data acquisition system (software Lab Chart 7.0)
After the equilibration period, aortic rings were challenged with 80 mM KCl to check tissue viability. Next, the endothelial integrity of the preparations was determined by verifying the responsiveness to acetylcholine (ACh, 1 μM) in vessels pre-contracted with Phenylephrine (PE, 1 μM). After wash-out and a period of equilibration, Phenylephrine (PE, 1 μM) was used to induce contraction, thereafter natriuretic peptides and natriuretic peptide engrafted IgGs were evaluated for vasorelaxation.

[2] = molecular target: T1, neutral endopeptidase (NEP) (Homo sapiens, UniProt P08473); assay: Sensitivity towards proteolytic degradation by NEP (reporter cell activity after incubation); format: in vitro ADME; conditions: 4 hours incubation with 0.6 μg/ml NEP at 37° C., then reporter cell activity
T1 construct: purchased R&D Systems 1182-ZNC
T1 sequence (P08473 52-750 limits assumed): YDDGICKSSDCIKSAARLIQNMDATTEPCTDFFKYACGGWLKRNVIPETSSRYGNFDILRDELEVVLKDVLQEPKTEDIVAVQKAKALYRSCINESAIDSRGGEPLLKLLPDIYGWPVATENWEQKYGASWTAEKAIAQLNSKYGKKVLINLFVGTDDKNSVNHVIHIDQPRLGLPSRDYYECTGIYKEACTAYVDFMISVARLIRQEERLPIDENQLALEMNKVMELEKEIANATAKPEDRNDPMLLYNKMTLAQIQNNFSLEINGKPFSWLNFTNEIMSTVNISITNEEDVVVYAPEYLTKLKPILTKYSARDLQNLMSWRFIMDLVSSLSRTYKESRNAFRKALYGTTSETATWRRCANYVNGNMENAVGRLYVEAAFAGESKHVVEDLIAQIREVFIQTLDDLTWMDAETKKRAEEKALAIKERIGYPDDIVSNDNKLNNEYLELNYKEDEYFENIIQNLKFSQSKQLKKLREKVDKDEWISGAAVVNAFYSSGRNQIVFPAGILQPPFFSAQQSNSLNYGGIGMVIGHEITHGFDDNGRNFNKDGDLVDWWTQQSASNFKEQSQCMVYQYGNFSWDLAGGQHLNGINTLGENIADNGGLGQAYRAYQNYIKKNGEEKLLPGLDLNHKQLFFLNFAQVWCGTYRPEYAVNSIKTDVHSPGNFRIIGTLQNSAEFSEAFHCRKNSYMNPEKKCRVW

healthy beagle dogs = assay: Hemodynamics in conscious telemetered beagle dogs; format: in vivo, dog
Procedure: The effects of TPP-10992 on cardiovascular and ECG parameters after single subcutaneous administration were assessed in a primary pharmacodynamic study in conscious telemetered beagle dogs.
Telemetry devices (DSI™, USA) were surgically implanted to measure blood pressure as well as heart rate, followed by a recovery period to allow wound closure. On the day of the study, telemetry sensors were activated for continuous hemodynamic measurements. The transmitted signals were collected by telemetry receivers located in the animal facility. All collected data were processed by a data acquisition program and averaged over a predefined period of 12h. As vehicle for TPP-10992 NaCl (0.9%) was used and doses of 0.1 mg/kg, 0.3 mg/kg and 1.0 mg/kg bodyweight were applied via subcutaneous injection.

[3] = rat, in vivo, iv, 5 mg/kg
Procedure: Pharmacokinetic parameters of TPP-10992 (SEQ ID NO 76 and SEQ ID NO 66) and TPP-5661 (SEQ ID NO 67 and SEQ ID NO 66) were determined after intravenous administration of 5 mg/kg to male Wistar rats (n=3). TPP-10992 and TPP-5661 were given as a bolus injection via the tail vein. Blood samples were collected from the jugular vein via previously implanted catheters in time intervals up to 14 days (336 hours). Generated EDTA-plasma was stored at −20° C. until further analysis. The quantification of TPP-10992 and TPP-5661 in plasma samples was performed employing an anti-human IgG ELISA (enzyme-linked immunosorbent assay) format. Pharmacokinetic parameters were calculated from plasma concentration time profiles using non-compartmental data analysis.

[4] = molecular target: T2, insulin degrading enzyme (IDE) (Rattus norvegicus, UniProt P35559); assay: Sensitivity towards proteolytic degradation by IDE (reporter cell activity after incubation); conditions: 4 hours incubation with 0.6 μg/ml IDE at 37° C., then reporter cell activity
T2 sequence (P35559 1-1019): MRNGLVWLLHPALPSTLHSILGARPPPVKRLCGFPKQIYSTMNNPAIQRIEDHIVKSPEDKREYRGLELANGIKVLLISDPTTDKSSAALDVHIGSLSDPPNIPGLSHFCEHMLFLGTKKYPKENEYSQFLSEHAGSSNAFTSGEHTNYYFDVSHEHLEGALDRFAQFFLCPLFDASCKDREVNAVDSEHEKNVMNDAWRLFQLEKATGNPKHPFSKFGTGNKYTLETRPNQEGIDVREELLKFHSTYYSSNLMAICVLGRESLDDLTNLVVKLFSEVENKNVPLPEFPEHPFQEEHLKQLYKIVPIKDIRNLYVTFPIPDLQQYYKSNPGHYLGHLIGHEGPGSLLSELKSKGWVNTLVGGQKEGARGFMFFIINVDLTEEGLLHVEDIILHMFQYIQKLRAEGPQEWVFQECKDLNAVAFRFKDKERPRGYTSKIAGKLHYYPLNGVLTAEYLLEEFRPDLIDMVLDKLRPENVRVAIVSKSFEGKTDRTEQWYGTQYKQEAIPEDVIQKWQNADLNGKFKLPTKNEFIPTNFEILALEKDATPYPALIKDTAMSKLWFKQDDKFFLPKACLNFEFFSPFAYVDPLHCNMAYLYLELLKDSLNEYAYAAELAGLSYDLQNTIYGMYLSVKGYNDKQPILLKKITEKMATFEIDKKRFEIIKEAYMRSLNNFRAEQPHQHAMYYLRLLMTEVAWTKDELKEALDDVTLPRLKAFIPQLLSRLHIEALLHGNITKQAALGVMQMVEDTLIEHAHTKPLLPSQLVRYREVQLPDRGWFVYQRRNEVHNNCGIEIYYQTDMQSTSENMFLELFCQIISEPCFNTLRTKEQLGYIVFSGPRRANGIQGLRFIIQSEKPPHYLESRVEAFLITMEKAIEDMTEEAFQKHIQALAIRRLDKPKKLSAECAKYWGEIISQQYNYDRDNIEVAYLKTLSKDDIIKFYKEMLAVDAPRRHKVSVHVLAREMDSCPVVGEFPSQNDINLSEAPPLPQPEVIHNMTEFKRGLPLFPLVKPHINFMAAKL

[5] = system: spontaneously hypertensive rats; assay: Radiotelemetric blood pressure in conscious spontaneously hypertensive rats; format: in vivo, rat; conditions: 30 mg/kg dose intraperitoneally
Procedure: Blood pressure and heart rate were monitored in freely moving conscious animals by radiotelemetry (Data Sciences International). Female spontaneously hypertensive rats (SHR/N Crl BR, Charles River) with a body weight of 210-300 g were used for these studies. All animals were housed in individual cages at 22-24° C. ambient temperature and maintained on a 12-hour light/dark cycle with free access to standard laboratory rat chow and water ad libitum. Telemeter (HD-10, DSI) implantation was performed a minimum of 14 days before animals were used for blood pressure measurements. Surgery was performed under aseptic conditions. After shaving the abdominal wall, a midline abdominal incision was made, and the fluid-filled sensor catheter was inserted upstream into the exposed descending aorta between the iliac bifurcation and the renal arteries. According to the DSI guidelines the tip of the telemetric catheter was located caudal to the renal arteries and secured by tissue adhesive. The transmitter body was affixed to the inner peritoneal wall before closure of the abdomen. For postsurgical protection against infections and pain a single dosage of an antibiotic (Oxytetracyclin® 10%, 60 mg/kg s.c., 0.06 ml/100 g body weight, Beta-Pharma GmbH & Co, Germany) and analgesic were injected (Rimadyl®, 4 mg/kg s.c., Pfizer, Germany). Telemetric data acquisition was performed by DSI software was predefined to sample hemodynamic data for 10 seconds repeated every 5 minutes. Data collection was started at least 2 hours before drug administration and finished after completion of measurement cycles. Data are expressed as % of basal values±SEM of at least 4 animals per group. The basal value for each animal was calculated as the average of the values measured in two hours prior to substance application (7:00-9:00 AM). Data are then expressed as averages every half hour, starting 15 minutes post application. All animals were treated with a single intraperitoneal (ip) application of test substances dissolved in phosphate buffered saline (PBS). Drug administration took place at 9:00 AM (0 hours).

[6] = Pharmacokinetics after intraperitoneal administration in mice (anti-human IgG ELISA); format: in vivo, mouse; conditions: intraperitoneal administration of 5 mg/kg
Procedure: Pharmacokinetic parameters of TPP-12897 were determined after intraperitoneal administration to female Balb/c mice (n=3). Blood samples were collected from 15 minutes up to 72 hours post application. Generated EDTA-plasma was stored at −20° C. until further analysis. The quantification of TPP-12897 in plasma samples was performed by an anti-human IgG (Immunoglobulin G) ELISA format.
Pharmacokinetic parameters were calculated from plasma concentration time profiles using non-compartmental data analysis.

Molecule | vasodilation in PE-contracted aortic rings [1] | Potency (log EC50 values) ([1]; vasodilation, endothelium-intact rat aortic rings contracted by phenylephrine (1 μM)) | proteolytic degradation by NEP [2] | significance of blood pressure reduction compared to placebo (healthy beagle dogs; dogs, 1.0 mg/kg s.c.) | reduction in blood pressure (healthy beagle dogs; dogs, 0.1, 0.3 and 1.0 mg/kg single subcutaneous) | effects on heart rate (healthy beagle dogs; dogs, 0.1-1.0 mg/kg s.c.) | duration of reduction in blood pressure (healthy beagle dogs; dogs, single subcutaneous administration) [days] | Mean clearance (CL) [3] [mL/day/kg] | terminal half-life (t1/2) [3] [h] | proteolytic degradation by IDE [4] | duration of effect [5] | reduction in mean arterial blood pressure (MAP) [5] | time of maximum effect post application [5] [h] | Mean area under the curve (AUC) [6] [µg·h/mL] | terminal half-life (t1/2) [6] [h]
B1 | dose-dependent vasodilation | −6.7 | high resistance | significant | dose-dependent and long-lasting | No effects | > 5 | 6.48 | 184 | high resistance | greater than 6 days | approximately 20% | 48 |  | 
B2 |  |  | high resistance |  |  |  |  |  |  | high resistance |  |  |  | 7705 | 194
